From PubChem BioAssay AID686979 (National Center for Advancing Translational Sciences (NCATS), 2013)
Screen size: about 420,000 compounds; about 50,000 (12%) were called active. The inconclusive results got no clear call from the source; some entries with a clear call stand among them for comparison. Calls follow the shape of the dose curve; as a rule, active = well fitted inhibition curve with a large enough effect; inconclusive = small, poorly fitted or top-dose-only effect; inactive = flat fitted curve, though single readings scatter. Potencies of inconclusive entries are left out as doubtful fits.

Assay: qHTS for Inhibitors of human tyrosyl-DNA phosphodiesterase 1 (TDP1): qHTS in cells in presence of CPT; also: nearly all actives have a fitted effect of over 55% in size
Conditions: chicken DT40 Tdp1-/-;hTDP1 cells + 20 nM CPT, ATP luminescence, 48 h; activity change, negative = growth inhibition: at 46.2 µM (top of the series)
Summary of the method: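 Chicken DT40 Tdp1-/- cells stably complemented with human TDP1 were seeded at 400 cells/well in medium containing 20 nM camptothecin, exposed to pin-transferred compounds, and grown at 37 °C for at least 48 hr. Viability was read as ATP luminescence.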
% is scaled to controls: 0 for no effect and ±100 for the full control effect; potency is read from the fitted curve at half-maximal effect; tags tell the direction and shape of the fitted curve.

Row | SMILES | Potency | activity change, negative = growth inhibition
1 | CCOC(=O)C1=C[C@@H](c2ccccc2)N(S(=O)(=O)c2ccc(C)cc2)[C@H]1c1ccccc1Cl | inconclusive [inhibitor, single point] | –
2 | Cc1cc2cc3c(cc2nc1SCc1ccc(C(=O)O)cc1)OCCO3 | – | inactive: -1.49%
3 | O=C(CSCc1c(F)cccc1Cl)NCCc1ccccc1 | – | inactive: -3.79%
4 | NC(=S)N/N=C/c1ccc(-c2ccc([N+](=O)[O-])cc2)o1 | inconclusive [inhibitor, single point] | –
5 | Cc1ccc(NC(=S)Nc2ccc(C(C)C)cc2)cc1S(=O)(=O)N1CCCCCC1 | active: 23.1 µM | –
6 | COc1ccc(CCNC(=O)CCn2c(=O)c3cccn3c3cccnc32)cc1OC | inactive | –
7 | CCc1ccccc1Nc1nc2ccccc2n2cnnc12 | inconclusive [inhibitor, single point] | –
8 | CN(C)c1cccc(N(C)C)c1CNC(=O)C(C)(C)C | – | inactive: -7.34%
9 | CSc1ncnc2c1ncn2CCCNCCCN1CCCC1=O | – | inactive: 5.04%
10 | O=C(NCc1ccccc1)c1ccc(CS(=O)Cc2cccc(Cl)c2)o1 (configuration not stated) | inconclusive [inhibitor, single point] | –
11 | Cc1ccc(S(=O)(=O)N(C)CCCN(C)c2nc(-c3cccs3)nc3ccccc23)cc1 | active: 15.8 µM | –
12 | CS(=O)(=O)Cc1ccc(C(=O)Nc2cccc(-c3nc4ccccc4[nH]3)c2)cc1 | inconclusive [inhibitor, single point] | –
13 | COc1ncccc1-c1cnc2cccnn12 | inconclusive [inhibitor, full curve, poor fit] | –
14 | CC1CN(S(=O)(=O)c2ccc3c(c2)NC(=O)CC(=O)N3)c2ccccc2O1 (configuration not stated) | – | inactive: -28.5%
15 | COc1ccc(CCNC2=C(Cl)C(=O)N(Cc3ccccc3)C2=O)cc1OC | inconclusive [inhibitor, single point] | –
16 | O=C(NCC(=O)N1CCN(Cc2ccccc2)CC1)c1ccc(Cl)cc1 | inconclusive [inhibitor, single point] | –
17 | O=C(Nc1ccc(O)cc1)C1CC=CCC1 (configuration not stated) | inconclusive [inhibitor, single point] | –
18 | O=C(CSc1nc(O)c(Cc2ccccc2)c(=O)n1-c1ccccc1)N1CCOCC1 | – | inactive: 2.2%
19 | CCCCCC(=O)Nc1ccc(N2CCOCC2)c(S(=O)(=O)Nc2ccc(OC)cc2)c1 | – | inactive: -18.9%
20 | CCn1nc(-c2ccc(C)cc2)nc2c(=O)n(C)c(=O)nc1-2 | active: 1.58 µM | –
21 | COc1cccc(CC2(CO)CCN(Cc3cccn3-c3cccnc3)CC2)c1 | inconclusive [inhibitor, single point] | –
22 | CCCCSc1nc2sc3c(c2c(=O)n1-c1ccc(C)cc1)CCN(C)C3 | active: 16.4 µM | –
23 | Cc1cccc(C)c1OC(=O)CSc1nnc(-c2cccs2)o1 | – | inactive: 0.457%
24 | Cc1cc(C(=O)NC2CCCc3ccccc32)ccc1[N+](=O)[O-] (configuration not stated) | inconclusive [inhibitor, single point] | –

Row | SMILES | Potency | activity change, negative = growth inhibition
25 | COc1cccc(NC(=O)CN(C)C(=O)c2cc(-c3ccc(C)o3)nc3ccccc23)c1 | inconclusive [inhibitor, single point] | –
26 | CC(c1ccon1)N(C)C(=O)c1cnn(-c2ncc3c(n2)-c2ccccc2CC3)c1C1CC1 (configuration not stated) | – | inactive: -10.8% [at 9.04 µM]
27 | C=CCNC(=S)N/N=C(\C)c1ccccn1 | active: 0.0103 µM | –
28 | Cc1cccc(-n2ncc3c(=O)[nH]c(SCC(=O)N4CC(=O)Nc5ccccc54)nc32)c1 | inconclusive [inhibitor, single point] | –
29 | O=C(O)C=C(Br)Br | – | inactive: 15.9%
30 | Clc1ccc(Nc2nc(N3CCOCC3)nc(N3CCOCC3)n2)cc1Cl | inconclusive [inhibitor, single point] | –
31 | CCOC(=O)c1c(NC(=O)/C=C/C(=O)O)sc(C)c1-c1ccc(Cl)cc1 | inconclusive [inhibitor, single point] | –
32 | O=C(c1cc(-c2cccs2)nc2ccccc12)N1CCN(CCO)CC1 | – | inactive: 4.04%
33 | CCNC(=S)N(CCc1c(C)[nH]c2ccccc12)Cc1cc(OC)c(OC)c(OC)c1 | active: 16.4 µM | –
34 | O=C(Nc1ccc(F)c(Cl)c1)c1ccc2c(=O)n3c(nc2c1)CCCCC3 | active: 16.4 µM | –
35 | O=C(CSc1nc(C2CC2)nc2ccccc12)N1CCCCC1 | inconclusive [inhibitor, single point] | –
36 | Cc1c(-c2ccccc2)c(=O)oc2cc(O)ccc12 | – | inactive: 0.46%
37 | CCn1c(=S)sc2c(=O)n(CC(=O)Nc3ccc(OC)cc3)c(C)nc21 | inconclusive [inhibitor, full curve, poor fit] | –
38 | COc1ccc(C2c3[nH]c4ccccc4c3C[C@H]3C(=O)N(c4ccccc4C(=O)NCCN4CCOCC4)C(=O)N23)cc1 (some centres not stated) | active: 23.1 µM | –
39 | Cc1ccc(C(O)(C(=O)NN(C(=O)c2ccccc2)c2ccccc2)c2ccc(C)cc2)cc1 | inconclusive [inhibitor, single point] | –
40 | CC(C)(C)c1ccc(C(=O)Nc2ccc(C(=O)N3CCCC3)cc2)cc1 | active: 20.6 µM | –
41 | CCCc1nc2c(c(=O)c3ccccc3n2C)c(=O)n1-c1ccc(F)cc1 | inconclusive [inhibitor, single point] | –
42 | Cc1ccc(C)c(CN2C(=O)c3ccccc3S(=O)(=O)c3ccc(C(=O)N4CCN(c5ccccc5F)CC4)cc32)c1 | – | inactive: -2.54%
43 | CCOC(=O)c1ccc(C#Cc2ccc3c(c2)C(C)(C)CCS3)nc1 | inconclusive [inhibitor, full curve, poor fit] | –
44 | OCCC1CN(Cc2ccccc2-c2ccco2)CCN1Cc1ccccc1 (configuration not stated) | – | inactive: -6.66%
45 | COc1ccc(-n2cc(C(=O)c3ccccc3O)cn2)cc1 | inconclusive [inhibitor, single point] | –
46 | O=S(=O)(Nc1ccc(-c2ccc(N3CCCC3)nn2)cc1)c1cccc(C(F)(F)F)c1 | inconclusive [inhibitor, partial curve] | –
47 | C/C(=N\NC(=O)c1cc(Br)ccc1O)c1cccs1 | inconclusive [inhibitor, single point] | –
48 | Cc1nn(Cc2ccc(F)cc2)c(C)c1NC(=O)c1cc(-c2ccc3c(c2)OCO3)on1 | inconclusive [inhibitor, single point] | –

Row | SMILES | Potency | activity change, negative = growth inhibition
49 | COC(=O)c1cccc(N(C(=O)CNC(=O)c2cccs2)C(C(=O)NCC2CCCO2)c2ccc(OC)c(OC)c2)c1 (configuration not stated) | – | inactive: 1.61%
50 | CCOc1ccccc1NS(=O)(=O)c1ccc(-n2cccn2)cc1 | – | inactive: -22.1%
51 | CCC(C)N(C(=O)Cn1c(=O)cnc2ccccc21)C1CCS(=O)(=O)C1 (configuration not stated) | – | inactive: 10.6%
52 | CC(C)N1C(=O)C(Cc2nc3ccccc3c(=O)n2-c2ccccc2)c2ccccc21 (configuration not stated) | inconclusive [inhibitor, single point] | –
53 | CCc1ccc2nc(NC(=O)C3CCN(c4ncnc5sc(C)c(C)c45)CC3)sc2c1 | inconclusive [inhibitor, single point] | –
54 | COc1ccc(C)cc1NS(=O)(=O)c1ccc2[nH]c(=O)c(=O)[nH]c2c1 | – | inactive: -10.8%
55 | CCOC1=C2[C@@H](CN(S(=O)(=O)c3ccc(C)cc3)[C@H]2c2ccccc2Cl)[C@H]2C(=O)N(Cc3ccccc3)C(=O)[C@H]2C1 | active: 18.4 µM | –
56 | Cc1ccc(-c2nc3c4ccccc4ccn3c2Cc2ccsc2)cc1 | active: 16.4 µM | –
57 | O=C1/C(=C/c2ccsc2)N2CCC1CC2 | – | inactive: 10.6%
58 | COc1ccc([C@H]2CC(=O)C=C(c3ccccc3C(F)(F)F)C2)cc1 | – | inactive: -17.5%
59 | COc1cccc(CN(C)CC2CCCN(CCc3ccccc3C)C2)c1 (configuration not stated) | inconclusive [inhibitor, single point] | –
60 | N#Cc1ccc(C(=O)N2CCN(C(=O)C3CCCO3)CC2)cc1 (configuration not stated) | – | inactive: -4.81%
61 | CCNC(=S)N1CCc2cc(OC)c(OC)cc2C1COc1ccccc1OC (configuration not stated) | – | inactive: -14.1%
62 | C=C[C@]1(C)C[C@@H](OC(=O)CSCCN(CC)CC)[C@]2(C)[C@H](C)CC[C@]3(CCC(=O)[C@H]32)[C@@H](C)[C@@H]1O | active: 7.5 µM | –
63 | CCc1ccc(C(O)c2ncc(-c3ccccc3F)[nH]2)cc1 (configuration not stated) | inconclusive [inhibitor, single point] | –
64 | O=C(CSCc1cccc(Br)c1)N/N=C/c1ccc2c(c1)OCO2 | – | inconclusive: -36.6% [inhibitor]
65 | CCOc1ccccc1NC(=O)CCCc1ccc(OC)c(C)c1 | inconclusive [inhibitor, partial curve] | –
66 | COc1cccc(NC(=O)Cn2c(=O)n(CCCCC(=O)NCCc3ccccc3)c(=O)c3ccccc32)c1 | inconclusive [inhibitor, full curve] | –
67 | O=C(c1ccccc1)N1CCN(C(=O)c2nn3c(C(F)(F)F)cc(-c4ccccc4)nc3c2Br)CC1 | inconclusive [inhibitor, single point] | –
68 | CCOC(=O)C1=C(CN2CCN(c3cc(C)ccc3C)CC2)NC(=O)NC1c1ccc(Cl)cc1 (configuration not stated) | inconclusive [inhibitor, single point] | –
69 | CCS(=O)(=O)N1CCc2cc(C(=O)Nc3cc(C(F)(F)F)ccc3Cl)ccc21 | inconclusive [inhibitor, partial curve, poor fit] | –
70 | COc1cccc(NC(=O)Cc2nc(-c3ccccc3)sc2-c2ccc(C)cc2)c1 | inconclusive [inhibitor, single point] | –
71 | CSc1ccccc1C(=O)N1CCC2(CC1)CC(=O)c1ccccc1O2 | inconclusive [inhibitor, single point] | –
72 | CNc1nc(N)c([N+](=O)[O-])c(N2CCCCCC2)n1 | – | inactive: -0.175%
